Reference: PubChem BioAssay AID493208 (National Center for Advancing Translational Sciences (NCATS), 2011)
The campaign covered roughly 44,000 compounds. About 340 (0.77%) were called active. Inconclusive results (about 5%) are left out. Calls follow the shape of the dose curve; as a rule, active = well fitted inhibition curve with a large enough effect; inconclusive = small, poorly fitted or top-dose-only effect; inactive = flat fitted curve, though single readings scatter. The list shows a part of the results.

experiment: Acumen qHTS Assay for Inhibitors of the mTORC1 Signaling Pathway in MEF (Tsc2-/-, p53-/-) Cells: Sytravon; conditions: phospho-rpS6 immunofluorescence/PI, 24 h; series mostly up to 38.3 µM; activity change, negative = inhibition: at the top concentration;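 also: plate controls were DMSO for no effect and rapamycin for full effect; nearly all actives have a fitted effect of over 50% in size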
How it was run: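 Readout is phospho-S6 Alexa 488 signal normalized to PI per well, reported as % active cells with thresholds set from rapamycin (7.5 nM) and DMSO controls. Cells: Tsc2-/-, p53-/- MEFs, 24 hrs compound at 37 C; PI cell number serves as viability.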

Activity change, negative = inhibition, inactive:
CCOC(=O)c1cc(-c2ccccc2)n(-c2cccc(C(=O)NC(C)CC)c2)c1C (stereo unspecified) -0.627%
O=C(Cn1ncc2c3ccccc3n(Cc3ccc(F)cc3)c2c1=O)NC1CCCCCC1 0.154%
CCn1c(CN2CCCCC2)nc2cc(NC(=O)COc3cc(C)ccc3C(C)C)ccc21 -1.99%
Cc1ccc(N(C)S(=O)(=O)c2ccc(-c3cnc(C4CC4)o3)cc2)cc1 0.634%
COc1ccc(Nc2nc(-c3ccccc3)c3cc(Br)ccc3n2)cc1 8.23%
CC(C)Oc1ccc(CNC(=O)c2ccc3c(c2)N(Cc2ccc(F)cc2)CCS3)cc1 -1.19%
O=C(C1CCCCC1)N(Cc1cccnc1)c1nc2c(F)cccc2s1 0.241%
Clc1ccccc1CNc1nc2ccccc2c2nc(-c3ccccc3)nn12 -6.99%
COc1cc2c(cc1OC)C(COc1ccccc1OC)N(C(=O)c1ccc(S(=O)(=O)N3CCCC3)cc1)CC2 (stereo unspecified) -0.0903%
Cc1ccc(C)c(NC(=O)N2CCN(c3nnc(C)c4c(C)n(-c5ccccc5)nc34)CC2)c1 -19.4%
Cc1cc(C)c(S(=O)(=O)Nc2ccc(-c3ccc(N4CCCCC4)nn3)cc2)c(C)c1 -3.68%
CCOc1ccccc1NC(=O)c1c(NC(=O)Cc2ccccc2)sc2c1CCCC2 8.31%
Cn1cc(C(=O)N2CCN(c3cccc(Cl)c3)CC2)c(=O)c2cc(S(=O)(=O)N3CCCC3)ccc21 -13.1%
COc1ccc(C)cc1NC(=O)CN1CCCN(S(=O)(=O)c2ccc(Br)cc2)CC1 -6.56%
CCOc1ccc(NC(=O)CSc2ccc3ccccc3n2)cc1 8.04%
COC(=O)c1cc(OC)c(OC)c(OC)c1NC(=O)c1cc(=O)n(C)c(=O)n1C -6.63%
COCCCNC(=O)CN1C(=O)COc2ccc(S(=O)(=O)N3CCOCC3)cc21 1.92%
COC(=O)CSCc1nc(-c2ccc(C(=O)OC)cc2)oc1C 0%
O=C(CCNS(=O)(=O)c1cccc2nonc12)Nc1ccc(F)cc1 -16.1%
COC(=O)c1cccc(Nc2c(-c3ccc(O)cc3)nc3nc[nH]n23)c1 -0.295%
COc1ccc(N2CCN(C(=O)c3cn(C4CCCCC4)c(=O)c4c3c3ccccc3n4C)CC2)cc1 -4.28%
Cc1cccc(C)c1NC(=O)N1CCC(C(N)=O)(N2CCCCC2)CC1 -2.84%
O=C(Nc1ccc(F)cc1F)c1cc2ccc3cccnc3c2[nH]1 0.699%
Cc1ccccc1Nc1cc(C(=O)NC2CCC(C)CC2)c2ccccc2n1 (stereo unspecified) -8.84%
CCOC(=O)c1ccc(NC(=O)c2c(NCc3cccc(OC)c3)sc3c2CCC3)cc1 -13.3%
CC(C)c1ccc(C(=O)Nc2ccc(-c3nc4ccccc4s3)c(Cl)c2)cc1 0.798%
COc1cccc(-n2c(-c3ccco3)nc3c(cnn3-c3ccccc3C)c2=O)c1 -2.29%
COc1ccc(-c2nc(Cn3c(SCc4cccc(F)c4)nc4cccnc43)c(C)o2)cc1 7.93%
Cn1cc(S(=O)(=O)N2CCCCCC2)cc1C(=O)Nc1ccccc1F 3.08%
COc1cccc(C(=O)NCC(c2ccc(N(C)C)cc2)N2CCc3ccccc32)c1OC (stereo unspecified) 10.8%
COc1ccc2oc(-c3ccc(C)c(NC(=O)c4sc5ccccc5c4Cl)c3)nc2c1 0.158%
Cc1cccc(OCC(=O)Nc2c(C(=O)N3CCN(c4ccccc4)CC3)oc3ccccc23)c1 1.02%
COc1ccc(N2CCN(c3oc(-c4ccccc4C)nc3S(=O)(=O)c3ccccc3)CC2)cc1 -8.21%
CCCCN(CCCC)S(=O)(=O)c1ccc(C(=O)Nc2sc3c(c2C(N)=O)CCN(CC)C3)cc1 4.92%
COc1cc(NC(=O)Cn2nc(Cc3cccnc3)c3ccccc3c2=O)cc(OC)c1OC -23%
Cc1cccc(CSc2nc3ccncc3n2Cc2ccc(C(=O)O)cc2)c1 -5.66%
O=C(Nc1ccc(-c2cn3cccnc3n2)cc1)c1ccccc1F 0.0433%
Cc1ccc(OCc2ccc(-c3nc(C#N)c(N4CCN(c5cccc(Cl)c5)CC4)o3)o2)cc1 -3.77%
CCOc1ccccc1CNC(=O)CCCn1nc(C)c2sc3ccccc3c2c1=O 1.93%
CC1=C(C(=O)Nc2cccc(Cl)c2)C2(CCCCCC2)OC1=O 0.616%
COc1cc(NC(=O)Cn2nc(C(F)(F)F)c3c2CCCC3)cc(OC)c1OC -24.3%
CCC1CN(C(=O)N2CCC(C(=O)NCCCc3ccccc3)CC2)c2ccccc2O1 (stereo unspecified) -2.22%
CN(C)c1ccc(CNC(=O)Cn2c(=O)oc3cc(S(=O)(=O)NCc4ccccc4)ccc32)cc1 -8.35%
CCCC12CN3CC(C)(CN(C1)C3c1cn(CC)c3ccccc13)C2=O (stereo unspecified) 2.64%
CCOC(=O)c1c(C)[nH]c(CCC(=O)Nc2ccccc2OCC)c1C 0.697%
COc1ccc2oc(=O)cc(CN3CCN(c4ccccc4OC)CC3)c2c1 0.0994%
COCCCNC(=O)CSc1nc(-c2ccc(OC)cc2)[nH]c1-c1ccc(OC)cc1 -10.6%
CCC(=O)N1c2ccccc2CC1C(=O)NCCN1CCN(c2cccc(Cl)c2)CC1 (stereo unspecified) 0%
CC(=O)N1CCCc2cc(S(=O)(=O)N3CCC(C(=O)NCc4ccccc4Cl)CC3)ccc21 -20.5%
O=C(NCc1ccccc1Cl)c1ccc2nc(Cc3ccccc3)oc2c1 0.902%
COc1ccc(CNC(=O)c2ccc(CS(=O)(=O)c3ccc(OC)cc3)o2)cc1 -0.898%
Cc1nn(CCC(=O)N2CCN(c3ccccc3F)CC2)c(C)c1S(=O)(=O)N1CCCC1 1.05%
COc1ccc(C(=O)Nc2cc3cc(Cl)ccc3oc2=O)cc1OC 0.168%
CC(=O)N1c2ccc(S(=O)(=O)NCc3ccc(Cl)cc3)cc2CC1C (stereo unspecified) -20.4%
CCN(CC)C(=O)c1sc2c(c1C)c(=O)n(-c1ccc(OC)cc1OC)c(=O)n2Cc1cc(C)ccc1C -2.34%
COc1cccc(-c2nn(C)c3sc(C(=O)NCc4ccc(C)cc4)cc23)c1 1.88%
CCOC(=O)c1cc(S(=O)(=O)NCc2ccc(F)cc2)[nH]n1 -10.9%
Cc1ccc(-c2nc(C)c(CCNC(=O)C(=O)Nc3ccc(C)c(Cl)c3)s2)cc1 -2.98%
CC(=O)Nc1ccccc1OCc1cc(=O)n2c(C)csc2n1 3.97%
CCN(CCCNC(=O)CSc1cc(=O)n(C)c2cc(Cl)ccc12)c1ccccc1 -0.181%
COc1ccc(CN(C)c2ccc(-c3nc(C)no3)cc2[N+](=O)[O-])cc1 0.934%
